Experimental data from the supplement of paper PMC10126150.
Values marked as one replicate rest on one cluster of the flow cell; about a third of the high ones do not repeat.

Each sequence was assayed on ATP (assay: switch fluorescence ratio, 500 uM ATP over buffer (Cy3 cluster intensity, sum of 5 cycles each) (fold (ratio)); higher = stronger signal-on switching upon ATP binding; sequences stand for … in TCGTCGGCAGCGTCAGATGTGTATAAGAGACAGTTTTTTTTTTTTTTTTTTTTTTTTT…TC). Conditions: aptamer strand: ATP DNA aptamer (quencher-CACCTGGGGGAGTATTGCGGAGGAAGG + anchor), 100 nM annealed; ATP concentration: 500 uM; one replicate.
Method in brief: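 Clusters carrying Cy3-labelled switching strands on a modified Illumina MiSeq flow-cell were annealed to 100 nM quencher-labelled ATP aptamer and imaged in selection buffer. They were imaged again after 15 min with 500 uM ATP at 22 °C, over five buffer/ATP cycles with NaOH stripping and re-annealing in between. For each cluster, the fluorescence ratio is the summed Cy3 intensity of the target cycles divided by that of the buffer cycles, averaged per switch-domain sequence. Clusters outside 100-1000 RFU were left out.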
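Further: ATP exposure 15 min at 22 °C before imaging.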

Sequence | switch fluorescence ratio
GGACGCGTGT | 1.12
GGACGGCTAT | 1
GGACGTACTA | 1.63
GGACTATTAG | 1.08
GGACTCTGGT | 0.995
GGACTGTATA | 1.11
GGACTTAACA | 1.09
GGACTTAACC | 1.08
GGACTTCGG | 1.01
GGACTTGGAG | 0.939
GGAGAAGGTA | 1
GGAGAGGAGT | 0.964
GGAGAGTGTG | 1.01
GGAGATGACA | 1.04
GGAGCAGAGG | 1.17
GGAGCAGTTC | 5.1
GGAGCCCCC | 1.01
GGAGCGTCGT | 1.01
GGAGCTAATT | 3.42
GGAGCTAGCC | 0.894
GGAGCTAGGT | 1.04
GGAGCTCGT | 0.992
GGAGGACGT | 1.06
GGAGGCAGG | 1.09
GGAGGCCTAT | 1.02
GGAGGCTGAA | 0.959

Sequence | switch fluorescence ratio
GGAGGGAACC | 1
GGAGGGACAG | 0.999
GGAGGGATCC | 1.03
GGAGGGCATA | 1.01
GGAGGGGCAG | 0.994
GGAGGGGGG | 0.976
GGAGGTGTCG | 1.1
GGAGTAAGGT | 1.01
GGAGTAGAAC | 1.04
GGAGTATCAA | 0.974
GGAGTATTTG | 0.971
GGAGTCTAAC | 0.978
GGAGTTACCA | 1.01
GGAGTTCCGT | 1
GGAGTTCGTC | 0.92
GGATAAGAGT | 0.967
GGATAATAAT | 1.02
GGATACCAC | 1.03
GGATACCGT | 0.944
GGATACGTGG | 0.987
GGATAGGAGG | 0.984
GGATATATTA | 0.974
GGATATCGTA | 1
GGATATGAAG | 1.02
GGATATGGT | 1
GGATCAATTT | 0.993

Sequence | switch fluorescence ratio
GGATCAGGAA | 0.991
GGATCCCCCG | 1.07
GGATCGGGGA | 1.04
GGATCGGTCC | 0.994
GGATCTTTTA | 0.96
GGATGAATAT | 0.981
GGATGACACT | 0.958
GGATGAGAGT | 0.97
GGATGAGCCC | 1.02
GGATGAGTAA | 0.97
GGATGAGTCT | 1.01
GGATGAGTGG | 0.993
GGATGATGAG | 1
GGATGATTGA | 0.916
GGATGTGCAT | 0.956
GGATTAAACA | 1.03
GGATTAAGGT | 1.01
GGATTACGTT | 0.989
GGATTCAAG | 0.964
GGATTCTTAA | 1.05
GGATTGGACA | 1.02
GGATTTACTT | 1.04
GGATTTAGTC | 0.963
GGATTTATTA | 1
GGCAAAAAGC | 0.986
GGCAAAAGTG | 0.999

Sequence | switch fluorescence ratio
GGCAACAGGT | 1.03
GGCAACAGTG | 1.05
GGCAACCCTA | 1.06
GGCAACCGCA | 1.07
GGCAATAATG | 1.07
GGCAATCCAT | 1.03
GGCAATCTGA | 1.1
GGCAATGCGC | 1.84
GGCACACCGA | 1.04
GGCACACGAA | 1.01
GGCACAGTGC | 0.992
GGCACATGAC | 1.1
GGCACATGTG | 1.09
GGCACCATCA | 1.04
GGCACCCACA | 1.29
GGCACCGGAT | 1.02
GGCACCGTAT | 1.04
GGCACCGTGG | 0.981
GGCACGGACC | 1.3
GGCACGGTTA | 1.11
GGCACGTCCT | 0.983
GGCACTAGAA | 1.02
GGCACTATCA | 1.01
GGCACTGTGG | 1.03
GGCACTTTCT | 1.03
GGCAGACCGA | 1.04

Sequence | switch fluorescence ratio
GGCAGACCTT | 1.15
GGCAGATAGG | 0.962
GGCAGATTAC | 1.13
GGCAGCAGGT | 1.02
GGCAGGAAGG | 0.997
GGCAGGGGT | 0.972
GGCAGGTACT | 1.03
GGCAGTACAC | 1.22
GGCAGTATAT | 0.964
GGCAGTGGAT | 0.964
GGCAGTTAGT | 1.01
GGCATAAAGT | 0.976
GGCATAGTAA | 0.936
GGCATATTTG | 1.02
GGCATCCGGG | 0.941
GGCATGTCAC | 1.02
GGCATTACGA | 2.37
GGCATTGAGT | 0.986
GGCCAATGCA | 0.979
GGCCACCC | 1.01
GGCCACCTGT | 1.01
GGCCAGGAC | 1.39
GGCCCAAGTA | 0.995
GGCCCACATA | 1.01
GGCCCACCTT | 1.07
GGCCCATTCC | 0.967

Sequence | switch fluorescence ratio
GGCCCCTATC | 1.03
GGCCCGTATT | 0.981
GGCCCTCCTT | 0.974
GGCCCTGATG | 1.03
GGCCCTGCCA | 1
GGCCGAACCT | 1.25
GGCCGAATCC | 0.977
GGCCGAGAGT | 0.991
GGCCGCTGCT | 0.973
GGCCGTAAAT | 1.01
GGCCGTCACT | 1
GGCCTCGCCG | 0.999
GGCCTCGTAA | 1.39
GGCCTGACTT | 1.01
GGCCTGATTC | 1.02
GGCCTGCAAG | 1.02
GGCCTGCTTC | 1.02
GGCCTTGCTA | 1.03
GGCCTTGCTG | 1.02
GGCCTTTGTA | 0.993
GGCGAAATCG | 0.968
GGCGAACATC | 1
GGCGAACGAG | 0.995
GGCGAATGTC | 0.963
GGCGACACTC | 1.12
GGCGCAGCT | 1.03

Sequence | switch fluorescence ratio
GGCGCAGGGG | 1.19
GGCGCGAACC | 1.2
GGCGCGAATA | 1.11
GGCGCGGCGC | 0.981
GGCGCGTCCG | 1
GGCGCGTCTT | 1.02
GGCGGATGTC | 1
GGCGGATTTC | 1.01
GGCGGCTATT | 1.01
GGCGGGAAAT | 0.992
GGCGGGCTGC | 0.957
GGCGGGGCC | 1
GGCGGGGCTG | 0.988
GGCGTAGCTA | 0.997
GGCGTATCAA | 1.01
GGCGTCTACG | 1.04
GGCGTTAAAA | 0.966
GGCGTTAGGG | 1.01
GGCGTTCTAC | 1.02
GGCTAAAGC | 1.03
GGCTAAATCT | 1.04
GGCTACCGTG | 0.975
GGCTACTCCT | 1.62
GGCTAGTAGT | 0.952
GGCTATCACT | 1.02
GGCTATGCTC | 1.16

Sequence | switch fluorescence ratio
GGCTATTCGT | 0.971
GGCTATTTCC | 1.51
GGCTC | 0.943
GGCTCACACG | 1.11
GGCTCAGTAA | 1.31
GGCTCCGTTT | 1.18
GGCTCGGGCA | 0.966
GGCTGGAACG | 1.05
GGCTGGTCCA | 1
GGCTGTAGTC | 1.02
GGCTGTGTCG | 0.952
GGCTTATGTT | 0.956
GGCTTCAGCA | 0.993
GGCTTCGCGG | 1.02
GGCTTCTACG | 1.06
GGCTTCTGTT | 1.07
GGCTTGCCGG | 1
GGCTTGGTAG | 1
GGCTTTGCG | 1.01
